Columns and labels:
Mouse [1] = assay: concentration in plasma after dosing; conditions: 1.25 h; dosed: Benzophenone; 15 mg/kg; iv; Male; B6C3F1
Rat [2] = assay: concentration in blood after dosing; conditions: 0.25 h; dosed: Benzophenone; 5 mg/kg; oral; Male; F344
Rat [3] = assay: concentration in plasma after dosing; conditions: dosed: Benzophenone, 5 mg/kg, oral, Male, F344
Rat [4] = assay: concentration in blood after dosing; conditions: 5 min; dosed: Benzophenone; 10 mg/kg; oral; Male; F344
Mouse [5] = assay: concentration in plasma after dosing; conditions: 1 h; dosed: Benzophenone; 15 mg/kg; oral; Female; B6C3F1
Mouse [6] = assay: concentration in plasma after dosing; conditions: 1 h; dosed: Benzophenone; 30 mg/kg; oral; Male; B6C3F1
Mouse [7] = assay: concentration in plasma after dosing; conditions: 2 h; dosed: Benzophenone; 15 mg/kg; oral; Female; B6C3F1
Mouse [8] = assay: concentration in plasma after dosing; conditions: 2 h; dosed: Benzophenone; 15 mg/kg; oral; Male; B6C3F1
Mouse [9] = assay: concentration in plasma after dosing; conditions: 4 h; dosed: Benzophenone; 15 mg/kg; oral; Female; B6C3F1
Rat [10] = assay: concentration in plasma after dosing; conditions: dosed: Benzophenone, 5 mg/kg, oral, Male, F344; remark: listed apart in the source
Mouse [11] = assay: concentration in plasma after dosing; conditions: 0.125 h; dosed: Benzophenone; 15 mg/kg; oral; Female; B6C3F1
Mouse [12] = assay: concentration in plasma after dosing; conditions: 5 min; dosed: Benzophenone; 60 mg/kg; oral; Female; B6C3F1
Mouse [13] = assay: concentration in plasma after dosing; conditions: 10 min; dosed: Benzophenone; 30 mg/kg; oral; Male; B6C3F1
Mouse [14] = assay: concentration in plasma after dosing; conditions: 2.5 min; dosed: Benzophenone; 60 mg/kg; oral; Female; B6C3F1
Rat [15] = assay: concentration in blood after dosing; conditions: 0.25 h; dosed: Benzophenone; 5 mg/kg; oral; Female; F344
Rat [16] = assay: concentration in blood after dosing; conditions: 0.25 h; dosed: Benzophenone; 10 mg/kg; oral; Male; F344
Rat [17] = assay: concentration in plasma after dosing; conditions: dosed: Benzophenone, 5 mg/kg, oral, Female, F344
Mouse [18] = assay: concentration in plasma after dosing; conditions: 2 h; dosed: Benzophenone; 15 mg/kg; oral; Male; B6C3F1; remark: listed apart in the source
Rat [19] = assay: concentration in blood after dosing; conditions: 0.125 h; dosed: Benzophenone; 10 mg/kg; oral; Male; F344
Mouse [20] = assay: concentration in plasma after dosing; conditions: 0.5 h; dosed: Benzophenone; 15 mg/kg; oral; Male; B6C3F1
Rat [21] = assay: concentration in blood after dosing; conditions: 0.125 h; dosed: Benzophenone; 5 mg/kg; oral; Female; F344
Mouse [22] = assay: concentration in plasma after dosing; conditions: 0.25 h; dosed: Benzophenone; 15 mg/kg; oral; Male; B6C3F1
Mouse [23] = assay: concentration in plasma after dosing; conditions: 10 min; dosed: Benzophenone; 30 mg/kg; oral; Female; B6C3F1
Rat [24] = assay: concentration in plasma after dosing; conditions: dosed: Benzophenone, 5 mg/kg, oral, Female, F344; remark: listed apart in the source
Rat [25] = assay: concentration in blood after dosing; conditions: 0.125 h; dosed: Benzophenone; 10 mg/kg; oral; Male; F344; remark: listed apart in the source
Mouse [26] = assay: concentration in plasma after dosing; conditions: 0.5 h; dosed: Benzophenone; 15 mg/kg; oral; Female; B6C3F1
Mouse [27] = assay: concentration in plasma after dosing; conditions: 1.5 h; dosed: Benzophenone; 15 mg/kg; oral; Female; B6C3F1
Rat [28] = assay: concentration in blood after dosing; conditions: 0.5 h; dosed: Benzophenone; 5 mg/kg; oral; Female; F344
Rat [29] = assay: concentration in plasma after dosing; conditions: 16 h; dosed: Benzophenone; 5 mg/kg; oral; Male; F344
Mouse [30] = assay: concentration in plasma after dosing; conditions: 0.25 h; dosed: Benzophenone; 15 mg/kg; iv; Male; B6C3F1
Mouse [31] = assay: concentration in plasma after dosing; conditions: 10 min; dosed: Benzophenone; 15 mg/kg; oral; Male; B6C3F1
Rat [32] = assay: concentration in plasma after dosing; conditions: dosed: Benzophenone, 10 mg/kg, oral, Male, F344
Rat [33] = assay: concentration in plasma after dosing; conditions: 16 h; dosed: Benzophenone; 10 mg/kg; oral; Female; F344
Mouse [34] = assay: concentration in plasma after dosing; conditions: 10 min; dosed: Benzophenone; 60 mg/kg; oral; Female; B6C3F1
Mouse [35] = assay: concentration in plasma after dosing; conditions: 2.5 min; dosed: Benzophenone; 15 mg/kg; oral; Male; B6C3F1
Mouse [36] = assay: concentration in plasma after dosing; conditions: 2.5 h; dosed: Benzophenone; 15 mg/kg; iv; Female; B6C3F1
Mouse [37] = assay: concentration in plasma after dosing; conditions: 1.25 h; dosed: Benzophenone; 15 mg/kg; iv; Female; B6C3F1
Rat [38] = assay: concentration in blood after dosing; conditions: 10 min; dosed: Benzophenone; 5 mg/kg; oral; Male; F344
Rat [39] = assay: concentration in blood after dosing; conditions: 0.25 h; dosed: Benzophenone; 10 mg/kg; oral; Female; F344
Mouse [40] = assay: concentration in plasma after dosing; conditions: 0.125 h; dosed: Benzophenone; 60 mg/kg; oral; Male; B6C3F1
Mouse [41] = assay: concentration in plasma after dosing; conditions: 0.75 h; dosed: Benzophenone; 15 mg/kg; oral; Male; B6C3F1
Rat [42] = assay: concentration in plasma after dosing; conditions: dosed: Benzophenone, 10 mg/kg, oral, Male, F344; remark: listed apart in the source

O=C(c1ccccc1)c1ccccc1 [Benzophenone]
Conditions | concentration in blood [ng/mL] | concentration in plasma [ng/mL]
Mouse [1] | – | 252
Mouse [5] | – | 166
Mouse [6] | – | 252
Mouse [7] | – | 132
Mouse [8] | – | 39.9
Mouse [9] | – | 50.4
Mouse [11] | – | 595
Mouse [12] | – | 5060
Mouse [13] | – | 1350
Mouse [14] | – | 376
Mouse [18] | – | 49.9
Mouse [20] | – | 152
Mouse [22] | – | 469
Mouse [23] | – | 1100
Mouse [26] | – | 887
Mouse [27] | – | 119
Mouse [30] | – | 2870
Mouse [31] | – | 295
Mouse [34] | – | 3260
Mouse [35] | – | 255
Mouse [36] | – | 144
Mouse [37] | – | 255
Mouse [40] | – | 3400
Mouse [41] | – | 198
Rat [2] | 913 | –
Rat [4] | 879 | –
Rat [15] | 859 | –
Rat [16] | 873 | –
Rat [19] | 580 | –
Rat [21] | 444 | –
Rat [25] | 1190 | –
Rat [28] | 630 | –
Rat [29] | – | 20.9
Rat [33] | – | 39.4
Rat [38] | 820 | –
Rat [39] | 1610 | –

Conditions | concentration in plasma [ng/mL]
Rat [3], 6 h | 52.6
Rat [3], 10 min | 231
Rat [10], 2 h | 117
Rat [10], 5 min | 89.4
Rat [17], 0.125 h | 177
Rat [17], 3 h | 84.7
Rat [24], 0.125 h | 160
Rat [24], 3 h | 99.3
Rat [32], 0.125 h | 225
Rat [32], 3 h | 225
Rat [42], 1 h | 290
Rat [42], 2.5 min | 63.8

Source: EPA's CvTdb concentration-time database
